From PubChem BioAssay AID2147 (National Center for Advancing Translational Sciences (NCATS), 2009)
About 3,600 (1.6%) of roughly 230,000 compounds were called active. The shares of active, inactive and inconclusive entries below differ from those in the screen. Calls come from the whole dose curve; as a rule, active = well fitted inhibition curve with a large enough effect (not every such curve was filed as active); inconclusive = small, poorly fitted or top-dose-only effect, or another doubt; inactive = no such curve, though single readings can be large or run the other way. Potencies beside an inconclusive call are fits to weak or partial responses and may not hold up.

biological target: Lysine-specific demethylase 4E (Homo sapiens) (UniProt B2RXH2); experiment: qHTS Assay for Inhibitors of Human Jumonji Domain Containing 2E (JMJD2E); details: JMJD2E catalytic domain, FDH-coupled NADH fluorescence (FDH is formaldehyde dehydrogenase); series mostly up to 57.1 µM
Note: nearly all actives have a fitted effect of over 50% in size.
Potency is the fitted concentration of half-maximal effect; tags give direction and shape of the fitted curve.

Sequence of UniProt B2RXH2 (B2RXH2 whole entry, looked up, the tested form may be a part): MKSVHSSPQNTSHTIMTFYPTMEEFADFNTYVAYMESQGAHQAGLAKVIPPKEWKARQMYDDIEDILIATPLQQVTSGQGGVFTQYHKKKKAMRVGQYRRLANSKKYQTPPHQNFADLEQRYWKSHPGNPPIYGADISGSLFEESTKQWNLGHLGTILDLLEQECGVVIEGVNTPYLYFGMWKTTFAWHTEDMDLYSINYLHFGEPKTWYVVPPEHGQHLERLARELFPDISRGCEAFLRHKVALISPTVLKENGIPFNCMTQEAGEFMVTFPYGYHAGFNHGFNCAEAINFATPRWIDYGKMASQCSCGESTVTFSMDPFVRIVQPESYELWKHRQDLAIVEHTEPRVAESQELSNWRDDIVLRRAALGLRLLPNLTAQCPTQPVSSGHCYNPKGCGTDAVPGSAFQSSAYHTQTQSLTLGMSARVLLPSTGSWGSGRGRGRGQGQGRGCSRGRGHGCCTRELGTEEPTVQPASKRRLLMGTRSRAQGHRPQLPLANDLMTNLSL

| SMILES | Potency |
| --- | --- |
| CN(C)S(=O)(=O)c1cccc(C(=O)N(Cc2ccc(F)cc2)Cc2ccco2)c1 | inactive |
| CCOC(=O)c1c(NC(=O)CSc2ncn[nH]2)sc(C)c1C | inconclusive: 35.5 µM [inhibitor, single point] |
| CCCCn1c(SC(C)C(N)=O)nc2cc(C(=O)OC)ccc2c1=O (centres undefined) | inactive |
| Cc1cc(C)cc(Oc2ccccc2/C=C\C(=O)O)c1 | inactive |
| NC(=O)c1c(NC(NC(=O)c2ccco2)(C(F)(F)F)C(F)(F)F)sc2c1CCCC2 | inconclusive: 39.8 µM [inhibitor, single point] |
| CCOc1cc2nc(-c3ccc(OC)c(OC)c3)nc(NCCCN3CCOCC3)c2cc1OC | inconclusive: 31.6 µM [inhibitor, single point] |
| NC(=O)COC(=O)c1ccc(-c2ccccc2)cc1 | inconclusive: 39.8 µM [inhibitor, single point] |
| CCOc1ncccc1C(=O)Nc1ccc(S(=O)(=O)N2CCCC2)cc1 | inconclusive: 39.8 µM [inhibitor, single point] |
| CCOc1ccc(-c2cc(C(=O)O)c3ccccc3n2)cc1 | inconclusive: 28.2 µM [inhibitor, partial curve] |
| CC1=NN(c2ccccc2)C(=O)C1C(=O)c1cc([N+](=O)[O-])cc([N+](=O)[O-])c1 (centres undefined) | inconclusive: 25.1 µM [inhibitor, single point] |
| c1ccc2c(-c3nn[nH]n3)cccc2c1 | inactive |
| COC(=O)c1ccccc1NC(=O)C1CC=CCC1C(=O)O (centres undefined) | inconclusive: 28.2 µM [inhibitor, partial curve] |
| Cc1ccc(C(=O)Nc2ccc3c4c(cccc24)CC3)cc1[N+](=O)[O-] | inactive |
| COc1ccc(NC(=O)Nc2cnccn2)cc1 | inconclusive: 39.8 µM [inhibitor, single point] |
| O=C(O)CC/C(=N\Nc1ccc([N+](=O)[O-])cc1)c1ccccc1 | inactive |
| CCCCCCOc1ccc(C(=O)O)cc1C#N | inactive |
| CCCc1nc(-c2cc3cc(C)ccc3[nH]c2=O)no1 | inconclusive: 35.5 µM [inhibitor, single point] |
| O=c1cc(O)c2ccc(O)cc2o1 | inconclusive: 28.2 µM [inhibitor, partial curve] |
| Cc1ccc(N2C(=O)[C@@H]3[C@H](C2=O)C2c4ccccc4C=CN2[C@@H]3C(=O)c2ccco2)c(C)c1 (some centres undefined) | inconclusive: 28.2 µM [inhibitor, single point] |
| NCC1O[C@@H](OC2C(N)C[C@H](N)[C@@H](O[C@H]3OC(CO)C(O)C(N)C3O)C2O)C(O)C(O)C1O (some centres undefined) | inactive |
| Cc1ccccc1Oc1nc2c(C)cccn2c(=O)c1/C=C(\C#N)C(=O)Nc1c(C)n(C)n(-c2ccccc2)c1=O | inconclusive: 25.1 µM [inhibitor, single point] |
| COc1ccc(-n2c3c(cc(C(=O)NNc4ccccc4)c2=O)C(=O)CC(C)(C)C3)cc1 | inactive |

| SMILES | Potency |
| --- | --- |
| Clc1ccc(C2[C@H]3CN(Cc4ccc(-c5ccccc5)cc4)[C@H](c4ccccc4)C34CC2(c2ccccc2)C4)cn1 (some centres undefined) | inconclusive: 39.8 µM [inhibitor, single point] |
| O=C(N/N=C/c1ccccn1)c1ccc(NC(=O)c2cccc([N+](=O)[O-])c2)cc1 | inconclusive: 39.8 µM [inhibitor, single point] |
| COC(=O)Cc1[nH]n(-c2nc3ccccc3s2)c(=O)c1C(C)=Nc1ccc(C)cc1 | inconclusive: 39.8 µM [inhibitor, single point] |
| O=C1NN(c2ccccc2)C(=O)/C1=C/c1ccc(-c2ccc(Cl)c(C(=O)O)c2)o1 | inconclusive: 39.8 µM [inhibitor, single point] |
| COc1ccccc1CNC(=O)CS(=O)Cc1nc(-c2ccccc2C)oc1C (centres undefined) | inactive |
| O=C(N=Nc1c(O)[nH]c2ccccc12)c1cccc(S(=O)(=O)Nc2ccccc2Cl)c1 | inconclusive: 0.01 µM [inhibitor, full curve, poor fit] |
| c1ccc(-c2ccc3c(c2)c2c4n3CCN=C4CCC2)cc1 | inconclusive: 2.82 µM [inhibitor, partial curve] |
| Cc1ccc(-c2cc(-c3ccccc3)c3c(N)c(S(C)(=O)=O)sc3n2)cc1 | inconclusive: 31.6 µM [inhibitor, partial curve] |
| CCOC(=O)CCc1c(C)c2ccc(OCC)c(C)c2oc1=O | inconclusive: 28.2 µM [inhibitor, partial curve] |
| CC(=O)c1cccc(NC(=S)NCc2ccco2)c1 | inactive |
| C/C(=N\NC(=O)c1nn(C)c(C)c1Br)c1cccc(NC(=O)c2ccoc2C)c1 | inconclusive: 39.8 µM [inhibitor, single point] |
| O=C1CC(N2CCCCCC2)C(=O)N1c1ccc(F)cc1 (centres undefined) | inactive |
| CCNc1nc(NCC)nc(OCC(=O)O)n1 | inactive |
| O=C(Nc1ccc(Cl)cc1)Nc1ccc(S(=O)(=O)Nc2ncccn2)cc1 | inconclusive: 39.8 µM [inhibitor, single point] |
| Cc1ccc(F)c(C2C3C=CCC(c4cccc(-c5ccc(N(C)C)cc5)c4)C3C(=O)N2Cc2ccccc2)c1 (centres undefined) | inconclusive: 22.4 µM [inhibitor, partial curve] |
| Cc1cc(=O)oc2cc(OC(=O)c3ccccc3)ccc12 | inconclusive: 14.1 µM [inhibitor, partial curve] |
| CC(C)(C)NC(=O)NC(=O)CN1CCN(c2ncc(C(F)(F)F)cc2Cl)CC1 | inactive |
| Cc1cc(=O)[nH]c(SCC(=O)c2ccccc2)c1C#N | inactive |
| CCOc1ccc(N=c2oc3cc(O)ccc3cc2C(=O)NCC2CCCO2)cc1 (centres undefined) | inconclusive: 14.1 µM [inhibitor, partial curve] |
| c1ccc(CN2CCC(Nc3nc(-c4cccs4)nc4ccccc34)CC2)cc1 | inconclusive: 35.5 µM [inhibitor, single point] |
| CCOC(=O)CSc1nc2ccccc2c(=O)n1CC | inactive |
| O=c1[nH]c(=O)n(Cc2ccco2)c2c1C(C(F)(F)F)(C(F)(F)F)N=C(Cc1ccccc1)N2 | inconclusive: 39.8 µM [inhibitor, single point] |
